Measurements published in PubChem BioAssay AID360 (National Center for Advancing Translational Sciences (NCATS), 2006).
Out of some 48,000 compounds screened, about 550 (1.1%) were called active. Inconclusive results (about 4%) are left out. Cut-off read from the data, not from the text of the source: active = potency below about 15 µM; inconclusive = mostly about 16 µM to 33 µM; inactive = weaker than that. The list shows a part of the results.

Molecular target: Lysosomal acid glucosylceramidase (Homo sapiens) (UniProt P04062)
Assay: Glucocerebrosidase;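 note: the screen sought inhibitors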
Settings: purified enzyme, resorufin glucoside fluorescence (screen aimed at inhibitors), 20 min; series mostly up to 77 µM
Outline: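 Normal human glucocerebrosidase (0.2 nM final) was assayed with resorufin β-D-glucopyranoside (30 uM final) in 50mM citric acid/KH2PO4, 10mM sodium taurocholate, 0.01% tween-20, pH 5.9. Compounds were titrated; fluorescence (Ex 548, Em 600) read after 20 min at RT.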
Potency is the fitted concentration of half-maximal effect.

Sequence of UniProt P04062 (P04062 whole entry, looked up): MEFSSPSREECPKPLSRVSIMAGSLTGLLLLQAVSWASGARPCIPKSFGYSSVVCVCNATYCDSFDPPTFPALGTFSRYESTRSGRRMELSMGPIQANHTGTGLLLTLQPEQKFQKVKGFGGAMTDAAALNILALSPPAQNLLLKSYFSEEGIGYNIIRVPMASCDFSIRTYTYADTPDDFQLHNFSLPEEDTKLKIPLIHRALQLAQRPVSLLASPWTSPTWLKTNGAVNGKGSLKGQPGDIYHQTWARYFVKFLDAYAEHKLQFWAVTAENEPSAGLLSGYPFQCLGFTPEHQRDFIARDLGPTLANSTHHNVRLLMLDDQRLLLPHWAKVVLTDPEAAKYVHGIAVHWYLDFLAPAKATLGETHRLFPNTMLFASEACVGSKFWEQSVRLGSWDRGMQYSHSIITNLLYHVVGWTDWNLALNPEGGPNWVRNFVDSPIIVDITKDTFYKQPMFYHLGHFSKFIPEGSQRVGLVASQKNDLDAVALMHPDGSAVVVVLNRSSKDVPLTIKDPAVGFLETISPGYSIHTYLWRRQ

SMILES	Potency
O=C(OCc1nc2ccccc2s1)c1cccs1	inactive: > 76.9 µM
CCOC(=O)c1cnc2c(-c3ccccc3)cnn2c1N	inactive: > 76.9 µM
CCOC(=O)CSc1nc2cc(C(=O)N3CCC(C(N)=O)CC3)ccc2c(=O)n1-c1ccccc1	inactive: > 76.9 µM
CN(C(=O)COc1ccc(C(C)(C)C)cc1)C1CCS(=O)(=O)C1 (stereo not drawn)	inactive: > 76.9 µM
CCOc1ccc2nc(C)cc(C(=O)O)c2c1	inactive: > 76.9 µM
CC1CCN(c2nc3c(c(=O)n(C)c(=O)n3C)n2Cc2ccccc2)CC1	inactive: > 76.9 µM
O=C(Cn1cnc2c(nnn2Cc2ccc(Cl)cc2)c1=O)N1CCCc2ccccc21	inactive
O=c1c(C(c2nnnn2C2CCCCC2)N2CCCCC2)coc2ccc(Cl)cc12 (stereo not drawn)	inactive: > 76.9 µM
CCOC(=O)N1CCN(c2c(-c3ccccc3)c3cc(Cl)ccc3[nH]c2=O)CC1	inactive: > 76.9 µM
Cc1ccccc1NC(=O)C1CCCN(S(=O)(=O)c2c(C)noc2C)C1 (stereo not drawn)	inactive: > 76.9 µM
Cn1c(N2CCN(C(=O)C34CC5CC(CC(C5)C3)C4)CC2)nc2ccccc21	inactive: > 76.9 µM
CCOC(=O)N=S(N)(=O)c1ccc(Cl)cc1 (stereo not drawn)	inactive: > 76.9 µM
O=C(CCC1CCCC1)NCc1ccccn1	inactive: > 76.9 µM
CCn1cc(C(=O)NCCCOC(C)C)c2cc(OC)c(OC)cc2c1=O	inactive: > 76.9 µM
Cc1ccc(-c2nnn(CC(=O)N(Cc3ccccc3)C(C(=O)NC3CCCC3)c3ccncc3)n2)o1 (stereo not drawn)	inactive: > 76.9 µM
CS(=O)(=O)N1CCCC(C(=O)NCCCN2CCC(Cc3ccccc3)CC2)C1 (stereo not drawn)	inactive: > 76.9 µM
COc1cccc(NC(C)C(=O)N2CC(C)OC(C)C2)c1 (stereo not drawn)	inactive: > 76.9 µM
COC(=O)c1ccc(C2/C(=C(/O)c3ccc(OC(C)C)cc3)C(=O)C(=O)N2c2cc(C)on2)cc1 (stereo not drawn)	inactive: > 76.9 µM
Cc1ccccc1N(CC(=O)NC1CCCC1)C(=O)CS(=O)CC(=O)Nc1ccc2c(c1)OCO2 (stereo not drawn)	inactive: > 76.9 µM
COc1ccc(C2c3c(oc4ccc(Cl)cc4c3=O)C(=O)N2Cc2ccco2)cc1OC (stereo not drawn)	inactive: > 76.9 µM
COCCCn1c(SCC(=O)N2CCCCC2C)nnc1-c1ccco1 (stereo not drawn)	inactive: > 76.9 µM
Cc1cc(=O)[nH]c2c1c(C)nn2C1CCCC1	inactive: > 76.9 µM

SMILES	Potency
O=C(Nc1ccc(Cl)cc1)C(c1ccccc1)N(CCO)CCO (stereo not drawn)	inactive: > 76.9 µM
Cc1cccc(-c2nc(CN3CCCC(C(=O)NC4CCC(C)CC4)C3)c(C)o2)c1 (stereo not drawn)	inactive
N#Cc1nc(-c2ccco2)oc1N1CCC(C(N)=O)CC1	inactive: > 76.9 µM
CN(c1ccc(C(=O)N2CCCCC2)cc1)S(=O)(=O)c1ccccc1	inactive: > 76.9 µM
COc1cc(CC(=O)Nc2ccc(S(=O)(=O)N(C)C)cc2)cc(OC)c1OC	inactive: > 76.9 µM
CCN1C(=O)/C(=c2\o/c(=C3\C=Cc4ccccc4N3CC)c(=O)n2CC)SC1=S	inactive: > 76.9 µM
Cc1cc(C)nc(SCCS(=O)(=O)Cc2ccccc2)n1	inactive: > 76.9 µM
CCOC(=O)c1[nH]c(=O)c2ccccc2c1O	inactive: > 76.9 µM
O=C1CC(N2CCN(c3ccc(F)cc3)CC2)C(=O)N1Cc1cccs1 (stereo not drawn)	inactive: > 76.9 µM
CCc1ccc(NC2=NCC(=O)N2Cc2ccc3c(c2)OCO3)cc1	inactive
COC(=O)c1ccc(CSc2nc3c(cnn3-c3ccc(F)cc3)c(=O)[nH]2)o1	inactive: > 76.9 µM
CCC1CCCCN1CCCNC(=O)c1cn(CC(C)C)c(=O)c2cc(OC)c(OC)cc12 (stereo not drawn)	inactive: > 76.9 µM
CCN1CCN(c2cc(C)c3cc(NC(=O)c4cncc(Br)c4)ccc3n2)CC1	active: 3.7 µM
Cc1ccc(-n2nnc3c(=O)n(CC(=O)N4CCC(C)CC4)cnc32)cc1	inactive: > 76.9 µM
Cc1ccc(Nc2nc(N)nc(CN3CCN(C)CC3)n2)cc1	inactive: > 76.9 µM
CC(CN1CCOCC1)OC(=O)c1ccc2c(c1)OCCO2 (stereo not drawn)	inactive: > 76.9 µM
Nc1ccnn1Cc1cccnc1	inactive: > 76.9 µM
CCCCNC(=O)CSc1nc2cc3c(cc2c(=O)n1CCCN(CC)CC)OCO3	inactive: > 76.9 µM
COc1ccc(C(C)=O)cc1CN1C(=O)C(C)N(c2ccc(C)cc2)C1=O (stereo not drawn)	inactive: > 76.9 µM
CCOC(=O)N1CCN(C(=O)CSc2nc3c(c(=O)n2-c2ccccc2OC)SCC3)CC1	inactive: > 76.9 µM
Cn1c(=O)n(Cc2ccc(F)cc2)c(=O)c2c1nc1n2CCCN1C1CCCCC1	inactive: > 76.9 µM
CC(C)n1c(C(=O)OCC(=O)NCc2ccc3c(c2)OCO3)cc2occc21	inactive: > 76.9 µM

SMILES	Potency
C=CCN1C(c2ccc(OCC)cc2)=CS/C1=C(\C#N)c1nnc2n1CCCCC2	inactive: > 76.9 µM
Cc1ccc(S(=O)(=O)N2CCCC2C(=O)Oc2ccccc2)cc1 (stereo not drawn)	inactive: > 76.9 µM
COc1ccccc1OCc1nnc(SCC(=O)c2cc(Cl)ccc2OC)o1	inactive: > 76.9 µM
Cc1cnc(C(=O)OCC(=O)Nc2ccc(Oc3ccccc3)cc2)cn1	inactive: > 76.9 µM
CCOC(=O)C1=C(C)NC2=C(C(=O)CC(C)(C)C2)C1c1cccc(C)n1 (stereo not drawn)	inactive: > 76.9 µM
CC1CCCN(Cc2nc3c(c(=O)n(C)c(=O)n3C)n2CC(N)=O)C1 (stereo not drawn)	inactive: > 76.9 µM
CCn1c(=O)n(CC)c2cc(S(=O)(=O)N3CCc4ccccc43)ccc21	inactive: > 76.9 µM
CC1(C)Cc2cccc(OCC(=O)N3CCN(S(=O)(=O)c4ccccc4)CC3)c2O1	inactive: > 76.9 µM
COc1cccc(NC(=O)CN2C(=O)C3(OCCCO3)c3ccccc32)c1	inactive: > 76.9 µM
COc1ccc(N(C)S(=O)(=O)c2cccc3cccnc23)c(OC)c1	inactive: > 76.9 µM
O=c1c2cccnc2[nH]c(=S)n1CCCN1CCN(c2ccccc2F)CC1	inactive: > 76.9 µM
CC(NC(=O)c1ccccc1NC(=O)c1ccco1)c1ccccc1 (stereo not drawn)	inactive: > 76.9 µM
O=C(Nc1cnn(C23CC4CC(CC(C4)C2)C3)c1)c1cnn2c(C(F)(F)F)cc(-c3ccco3)nc12	inactive: > 76.9 µM
CC(=O)Nc1ccc(S(=O)(=O)Nc2c(C)n(C)n(-c3ccccc3)c2=O)cc1	inactive: > 76.9 µM
COc1ccccc1NC(=O)CN1C(=O)C2(OCCCO2)c2ccccc21	inactive: > 76.9 µM
Cc1c(C(=O)N2CCCCCC2)oc2ccccc12	inactive: > 76.9 µM
COc1cc2[nH]c(=O)n(CCCCCC(=O)N3CCN(c4ccccc4)CC3)c(=O)c2cc1OC	inactive: > 76.9 µM
COc1ccc(C(N)=O)cc1NC(=O)CC(O)(C(F)(F)F)C(F)(F)F	inactive: > 76.9 µM
Cc1onc(-c2c(F)cccc2Cl)c1C(=O)N1CCN(S(C)(=O)=O)CC1	inactive: > 76.9 µM
CCOC(=O)c1[nH]c(C)c(C(=O)NCCC2=CCCCC2)c1C	inactive: > 76.9 µM
CCOC(=O)C1(C)NC(c2ccc(OC)c(OC)c2)C2C(=O)N(CC)C(=O)C21 (stereo not drawn)	inactive: > 76.9 µM
CC(=O)Nc1ccc(Cl)c(C(N)=O)c1	inactive: > 76.9 µM

SMILES	Potency
COc1ccc(Cn2c(=O)sc3ccccc32)cc1OC	inactive: > 76.9 µM
Cc1nc2ccc(F)cc2cc1C(=O)NCC1CCCO1 (stereo not drawn)	inactive: > 76.9 µM
CCC1Oc2ccc(C)cc2N(CC(=O)NCc2ccccc2OC)C1=O (stereo not drawn)	inactive: > 76.9 µM
O=S(=O)(c1ccc(Cl)cc1)N1CCN(c2ccc(N3CCOCC3)nn2)CC1	inactive: > 76.9 µM
Cn1c(C(=O)OC(C(=O)NC2CCCC2)c2cccnc2)cc2sccc21 (stereo not drawn)	inactive: > 76.9 µM
CSc1nsc(SCC(=O)N2CCCc3ccccc32)n1	inactive: > 76.9 µM
CN1C(=O)SC(Nc2ccc(F)cc2)C1=O (stereo not drawn)	inactive: > 76.9 µM
CCOC(=O)CSc1nc2ccccc2c(=O)n1CCN1CCOCC1	inactive: > 76.9 µM
Cc1occc1C(=O)Nc1ccc(S(=O)(=O)N2CCCC2)cc1	inactive: > 76.9 µM
CC1CCCCN1CCNS(=O)(=O)c1ccc2c(c1)oc(=O)n2C (stereo not drawn)	inactive: > 76.9 µM
COC(=O)c1cc(=O)n(Cc2cccs2)c(=NCc2cccs2)s1	inactive: > 76.9 µM
O=C1C(SC(F)(F)C(F)F)=C(C(F)(F)F)OC2C3C=CC(C3)C12 (stereo not drawn)	inactive: > 76.9 µM
N#CCSc1nnc(-c2cccnc2)n1-c1ccccc1	inactive: > 76.9 µM
Cc1nn(Cc2ccccc2Cl)c(C)c1C(=O)NC1=NCCS1	inactive: > 76.9 µM
Cc1cc(C)c(C(=O)CSc2n[nH]c(=O)n2C2CC2)cc1C	inactive: > 76.9 µM
CCNc1nc(Oc2ccc(C(=O)OC)cc2)nc(SC)n1	inactive: > 76.9 µM
CCOC(=O)c1cnc(-n2nc(C)cc2C)nc1Nc1ccc2c(c1)OCO2	inactive: > 76.9 µM
COc1ccc(O)c(-c2c(-c3ccc(Cl)cc3)n[nH]c2C)c1	inactive: > 76.9 µM
COc1ccc(N2C(=O)c3cccc4cccc(c34)C2=O)nn1	inactive: > 76.9 µM
c1ccc(Cn2c(-c3ccco3)nc3nc4ccccc4nc32)cc1	inactive: > 76.9 µM
CS(=O)(=O)N1CCCC(C(=O)NCCCN2CCN(Cc3ccccc3)CC2)C1 (stereo not drawn)	inactive: > 76.9 µM
COC(=O)CCC(=O)Nc1sc(C)c(C)c1C(N)=O	inactive: > 76.9 µM
